The source gives no read counts; variants with many changes may rest on few reads.
B1: LINE1-full (parent)
chain: UACGUAGGUGGUUUUCCCCUGAUAGUGCUAAGGGGGCCUGGAAGUUUGGACUGGGCAGAGCUCAACACAGCGUGGCAAAGUGGCUGUGGCUAGACUGCCUCUCUGGAUUCCUCGUCACUCAGCAGGGCAUCUCUGAGAGAAAUGCC

Variants of: B1
Test: self-cleavage, relative activity (ratio to wild type); higher = more cleavage; in vitro, sequencing; the parent is a self-cleaving ribozyme

Variant | self-cleavage
U1C U130C A138G | 1.87
U1C U130C G137U | 0.62
U1G A22G U47A C84A U130C | 0.52
U1G A43U U102A U132C | 0.51
U1G A77G G80A U91G | 0.13
U1G A121U U132C A141G | 1.71
U1G G21A A22G A64U | 0.49
U1G U15A U39A A64G | 0.44
U1G U39C A77U G86A | 0.07
U1G U45C U119C | 0
U1G U132C A138G | 2.55
A2C A24G A136U | 0.85
A2C A65G G89C | 0.04
A2C A67G A77G | 1.08
A2C A79G U143A | 1.8
A2C A124U A141G | 0.77
A2C G10A U143C | 1.27
A2C G35A U46G G60U G88A | 0.01
A2C U13C U20C U23C | 0
A2C U20C A43G G72A U134A | 0.16
A2C U45G U46C A69U G106A C111U U130A | 0.11

Variant | self-cleavage
A2C U47G G72A A94U G97A U100C G126A U132C | 0
A2C U52C G55C A77U A79U | 0.09
A2C U73A U134C | 1.44
A2C U91C U100A | 0.12
A2G A6G A107G | 0.56
A2G A22C A124G A141G | 1.02
A2G A22G G32A U47C A78G A142G | 0.61
A2G A22G U62A A94G U108C | 0
A2G A22U A59U | 0.95
A2G A24G A31U U96A | 0.21
A2G A24G U81A | 1.24
A2G A24U C37U | 0.57
A2G A30G A69G A136U | 0.53
A2G A30G A69U A117G | 0.48
A2G A30G U119C | 0.57
A2G A30U A129G | 0.66
A2G A31C A57G U119A | 0.28
A2G A31G A78G U104A | 1.67
A2G A42G U87A | 0.19
A2G A42G U96C A142G | 0.31
A2G A43G A69C U130C | 0

Variant | self-cleavage
A2G A43G U108C C145U | 1.13
A2G A43U U45C U119C | 0
A2G A50G A136G A140G | 0
A2G A50G U52C C103U U109A | 0
A2G A50U C118U | 0.63
A2G A57G U96C A136U | 0.88
A2G A57G U104A U119A | 0.64
A2G A57U A64U U96C | 0
A2G A59G U132A | 0
A2G A64U A136G | 0.86
A2G A65G U73A U115A A124U | 0.17
A2G A65G U96A A136G A141G | 0.16
A2G A65G U100C | 0.17
A2G A67G A77G | 0
A2G A67G A117G | 1.31
A2G A67G U81C | 0
A2G A67G U100A U134C | 0
A2G A67G U115C A140G | 1.53
A2G A69G A77U A94U A138G | 0.04
A2G A69U A94G | 0.23
A2G A69U G106A A138G A142G | 0.15

Variant | self-cleavage
A2G A69U U87A A124G U132A | 0.25
A2G A77G G80A C110U A136U | 1.4
A2G A77G G122A | 0.81
A2G A77U A121U A124U A136G | 1.2
A2G A78G A142G | 0.33
A2G A78U A136G | 0.88
A2G A78U G105U U143C | 1.91
A2G A78U U119C | 1.02
A2G A94G A117U G137U | 0
A2G A121G C131U | 0.76
A2G A129G U132C U134C | 0.84
A2G C3A U102C A136U | 1.93
A2G C3U A117U | 0.38
A2G C3U G8A G72A | 0.74
A2G C3U G114A U132C | 0.68
A2G C18G U47G U104C | 0
A2G C18U A77U C98G A124G | 0.14
A2G C18U C28G A107G | 1.67
A2G C37G A64U U108A A124U | 0.72
A2G C51U A78G U85C A121C A136G A142G | 0
A2G C61U U87A | 0.17
